Laboratory results reported in PubChem BioAssay AID651820 (National Center for Advancing Translational Sciences (NCATS), 2012).
The whole screen tested about 340,000 compounds, of which about 12,000 (3.5%) were called active. Inconclusive results, whose numbers are uncertain, are shown with a selection of clear calls. Calls come from the whole dose curve; as a rule, active = well fitted inhibition curve with a large enough effect; inconclusive = small, poorly fitted or top-dose-only effect, or another doubt; inactive = no such curve, though single readings can be large or run the other way. No potency is given beside an inconclusive call; the fits are too rough.

Assay: qHTS Assay for Inhibitors of Hepatitis C Virus (HCV)
Settings: Huh7.5.1 HCVcc-Cre (HCVcc is cell-culture hepatitis C virus) infection, luciferase reporter, 44 h; activity change, negative = inhibition: at 41.8 µM (top of the series) unless noted
How it was run: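 HCVcc-Cre virus at an moi near 0.5 was added right after compound to cells cultured 4 h from seeding (1,000 cells/well). Luciferase activity was determined 44 h later, 15 min after substrate addition at RT.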
% is set by controls: 0 for no effect and ±100 for the full control effect; potency is the fitted concentration of half-maximal effect; tags give direction and shape of the fitted curve.

With `CCCCCC1(C)NC(=S)N(c2ccccc2)N1` (configuration not stated) as the compound, how does the Potency read?
The Potency was inconclusive [inhibitor, single point].

Which Potency does the source give for `COc1cc(OC)c(N(C)S(=O)(=O)c2cccc(C(=O)Nc3nccs3)c2)cc1Cl` here?
The Potency was inconclusive [inhibitor, partial curve].

With `O=C(Nc1ccc(-c2nc3ncccc3o2)cc1)c1ccco1` as the compound, how does the “activity change, negative = inhibition” value read?
Its value is inactive: 8.85%.

With `Cc1c(/C=N/NC(=O)COc2ccccc2[N+](=O)[O-])c2ccccc2n1C` as the compound, how does the Potency read?
The Potency was inconclusive [inhibitor, partial curve].

With `O=C(Nc1nonc1NC(=O)C1CCCCC1)C1CCCCC1` as the compound, how does the Potency read?
Its Potency is inconclusive [inhibitor, single point].

With `Cc1ccc2c(c1)S/C(=C/c1ccc[n+](CCO)c1)N2C` as the compound, how does the Potency read?
Its Potency is active: 1.58 µM.

With `O=C(CC(CC(=O)c1ccccc1)c1ccccn1)c1ccccc1` as the compound, how does the “activity change, negative = inhibition” value read?
Its value is inactive: -19.6%.

Which Potency does the source give for `CN(C)c1ccnc2sc3c(=O)n(Cc4ccccc4)cnc3c12` here?
The Potency was inconclusive [inhibitor, partial curve].

For `OC1(c2ccccc2)CCNC2CCCCC21` (configuration not stated), which “activity change, negative = inhibition” value is on record?
Its value is inactive: -1.94%.

With `CCCCNc1nc2ccccc2[nH]1` as the compound, how does the “activity change, negative = inhibition” value read?
Its value is inactive: -23.4%.

Which Potency does the source give for `COc1ccc(NC(=O)C2CCCN(S(=O)(=O)c3ccc4c(c3)CCCN4C(C)=O)C2)cc1Cl` (configuration not stated) here?
The Potency was active: 2.51 µM.

For `COc1ccc(C(=O)COC(=O)c2c(C)noc2C)cc1Cl`, which “activity change, negative = inhibition” value is on record?
The value was inactive: -8.16%.

Which “activity change, negative = inhibition” value does the source give for `COc1ccc(CC(=O)N/N=C(\C)c2cccc(NC(=O)C3CC3)c2)cc1` here?
The value was inactive: -20.1%.

For `Oc1ccc(C[C@H]2CNCCN2CCc2cccc3ccccc23)cc1`, which Potency is on record?
The Potency was inconclusive [inhibitor, single point].

For `CCOc1ccc(/C=N/NC(=O)c2[nH]c3ccc(C)cc3c2C)cc1`, which Potency is on record?
Its Potency is inconclusive [inhibitor, full curve, poor fit].

With `COc1ccc(Br)cc1CNC(=O)CN1C(=O)C(c2ccccc2)Oc2cccnc21` (configuration not stated) as the compound, how does the Potency read?
Its Potency is inconclusive [inhibitor, single point].

Which “activity change, negative = inhibition” value does the source give for `Cc1cc(C)c(C(=O)O)c(Cl)n1` here?
The value was inactive: 11.7%.

For `COc1cc2c(cc1OC)C(NC(=O)c1ccc(C)cc1)CC2=O` (configuration not stated), which “activity change, negative = inhibition” value is on record?
The value was inactive: 6.21%.

With `Cc1ccc(C#N)c(SCc2ccccc2F)n1` as the compound, how does the “activity change, negative = inhibition” value read?
The value was inactive: 3.77%.

Which Potency does the source give for `Cc1cccc(N2CCN(C(=O)c3cccc(S(=O)(=O)N4CCCCC4)c3)CC2)c1C` here?
Its Potency is inconclusive [inhibitor, single point].

With `Cc1ccc(S(=O)(=O)N(C(=O)c2ccncc2)c2ccc(OC(=O)c3ccncc3)c3ccccc23)c(C)c1` as the compound, how does the Potency read?
Its Potency is inconclusive [inhibitor, single point].

Which Potency does the source give for `CN(C)CC/C=C1\c2ccccc2CSc2ccccc21` here?
Its Potency is inconclusive [inhibitor, partial curve].

With `Cc1cccc(NS(=O)(=O)c2ccc(-n3cccn3)cc2)c1C` as the compound, how does the Potency read?
The Potency was inconclusive [inhibitor, partial curve, poor fit].

With `COc1ccc(CN2CCn3nc(C(=O)NC4CC4)cc3C2=O)cc1` as the compound, how does the Potency read?
The Potency was inconclusive [inhibitor, single point].

With `Cc1ccc(OCCNC(=O)c2ccc3ccccc3n2)cc1` as the compound, how does the Potency read?
The Potency was inconclusive [inhibitor, single point].

Which Potency does the source give for `COCCN(CC1CCCN(C2Cc3ccccc3C2)C1)C(=O)CCC(N)=O` (configuration not stated) here?
Its Potency is inconclusive [inhibitor, partial curve].

Which Potency does the source give for `Cc1ccc(-c2nc3c(c(SCC(=O)N4CCOCC4)n2)Cc2c(CO)cnc(C)c2O3)cc1` here?
The Potency was inconclusive [inhibitor, partial curve].

With `Brc1ccc(-c2c[n+]3c(n2-c2ccccc2)SCC3)cc1` as the compound, how does the “activity change, negative = inhibition” value read?
The value was inactive: -15.1%.

For `O=C(Nc1ccc(Cl)cc1)c1cc2nc(-c3ccco3)cc(C(F)(F)F)n2n1`, which Potency is on record?
The Potency was inconclusive [inhibitor, full curve, poor fit].

Which “activity change, negative = inhibition” value does the source give for `COc1cc(OC)c(C(=O)NNC(=O)c2ccc(NS(=O)(=O)c3cccs3)cc2)cc1OC` here?
The value was inactive: -11.4%.

With `O=C(CN1CCCC1)N/N=C/c1ccc(-c2cccc(Cl)c2)o1` as the compound, how does the “activity change, negative = inhibition” value read?
The value was inactive: -10.1%.

With `CCCn1c(SCC(=O)Nc2ccc3c(c2)OCO3)nc2c1c(=O)n(C)c(=O)n2C` as the compound, how does the Potency read?
Its Potency is inconclusive [inhibitor, single point].

Which Potency does the source give for `CCc1ccc(NC(=O)CCc2c(C)nn(-c3ccc(N4CCCCC4)nn3)c2C)cc1` here?
Its Potency is inconclusive [inhibitor, single point].

Which Potency does the source give for `COc1ccccc1C1CC(=O)Nc2cc3c(cc21)OCCO3` (configuration not stated) here?
The Potency was inconclusive [inhibitor, full curve].

Which Potency does the source give for `Nc1nc2ccccc2n1CCOc1ccc(Br)cc1` here?
Its Potency is inconclusive [inhibitor, single point].

Which Potency does the source give for `CC(=O)c1ccc(OCCCC(=O)Nc2cccc(S(=O)(=O)N3CCOCC3)c2)cc1` here?
The Potency was inconclusive [inhibitor, single point].

With `CCc1ccc(OS(=O)(=O)c2cn(C)c(=O)n(C)c2=O)cc1` as the compound, how does the “activity change, negative = inhibition” value read?
Its value is inactive: 26.3%.

With `CCOc1ccccc1/C=N/OCC(=O)NCc1ccc(F)cc1` as the compound, how does the Potency read?
The Potency was active: 3.98 µM.

With `Cc1ccc(CNC(=O)c2ccc3c(=O)n4c(-c5ccc(C)cc5)csc4nc3c2)cc1` as the compound, how does the “activity change, negative = inhibition” value read?
Its value is inactive: 9.15%.

With `CC(C)c1ccc2c(c1)C(N1CCNCC1)Cc1ccc(F)cc1S2` (configuration not stated) as the compound, how does the Potency read?
The Potency was inconclusive [inhibitor, single point].

For `CCOC(=O)c1sc2ncn(/N=C/c3ccc(O)cc3)c(=O)c2c1C`, which Potency is on record?
Its Potency is inconclusive [inhibitor, partial curve, poor fit].

With `COc1ccc(-c2nc3c4ccccc4[nH]c(=O)n3n2)cc1` as the compound, how does the “activity change, negative = inhibition” value read?
The value was inactive: -26.8%.

Which Potency does the source give for `Cc1ccc(S(=O)(=O)NC(CCc2ccccc2)CC(=O)C(C)(C)C)cc1` (configuration not stated) here?
The Potency was inconclusive [inhibitor, single point].

With `Clc1ccc(-c2csc(NNC3=NCCCCC3)n2)cc1` as the compound, how does the “activity change, negative = inhibition” value read?
The value was inactive: -22.8%.

Which Potency does the source give for `O=C(CSc1cccc[n+]1[O-])c1ccc(-c2ccccc2)cc1` here?
The Potency was inconclusive [inhibitor, single point].

Which Potency does the source give for `COc1ccc(NS(=O)(=O)c2ccc(C(=O)NCC3(N4CCOCC4)CCCCC3)cc2)cc1` here?
Its Potency is inconclusive [inhibitor, single point].

Which Potency does the source give for `CCCCn1cnc2c(SCc3ccc(Br)cc3)nc(N)nc21` here?
Its Potency is inconclusive [inhibitor, single point].
